The record followed here is paper PMC11995724, “Antibiotic target discovery by integrated phenotypic and activity-based profiling of electrophilic fragments” (Cell chemical biology, 2025).

Structures are written as SMILES. In all, about 3,200 compounds went through this assay and about 110 (3.4%) showed an effect of 50% or more. Some of the results follow.

In this assay the test system is T1, V. cholerae SAD30.
T1 construct: SAD30
Also noted: species or system S. aureus MSSA476 (TSB) or V. cholerae SAD30 (LB); 384-well bacterial growth screen at 25 uM, OD600 relative to DMSO control. Conditions: relative growth, OD600, LB; 25 µM; inhibitor.
Regarding `N#CC(=Cc1ccco1)C(=O)Nc1cccc(Cn2cccn2)c1` [8-I20, 2-cyano-3-(furan-2-yl)-N-{3-[(1H-pyrazol-1-yl)methyl]phenyl}prop-2-enamide], the “% of control remaining” value amounted to 69.4086%.

On to `Cc1noc(C)c1COC1CCN(C(=O)C(C)Cl)C1` (stereo not drawn) [7-O14, 2-chloro-1-{3-[(3,5-dimethyl-1,2-oxazol-4-yl)methoxy]pyrrolidin-1-yl}propan-1-one], for which the “% of control remaining” value is listed as 78.3744%.

On to `CSc1ccc(C=C(C#N)C(=O)N2CCCC2)cc1` [8-I11, 3-[4-(methylsulfanyl)phenyl]-2-(pyrrolidine-1-carbonyl)prop-2-enenitrile], for which the “% of control remaining” value was 67.5051%.

Turning to `Cl.O=C(CCl)N1CCN(CC=Cc2ccccc2)CC1` [4-F16, 2-chloro-1-[4-(3-phenylprop-2-en-1-yl)piperazin-1-yl]ethan-1-one hydrochloride], the “% of control remaining” value is listed as 93.6813%.

As for `CSc1ccccc1NC(=O)C(C)Cl` (stereo not drawn) [4-M12, 2-chloro-N-[2-(methylsulfanyl)phenyl]propanamide], the “% of control remaining” value amounted to 94.8889%.

Take `O=C(CCl)N1CCCCC1c1nc(-c2ccccn2)cs1` (stereo not drawn) [5-G18, 2-chloro-1-{2-[4-(pyridin-2-yl)-1,3-thiazol-2-yl]piperidin-1-yl}ethan-1-one]: the “% of control remaining” value stood at 93.8111%.

With `N#CC(C(=O)CCl)=C1NC(=O)c2ccccc2N1` [10-P14, 4-chloro-3-oxo-2-(4-oxo-1,2,3,4-tetrahydroquinazolin-2-ylidene)butanenitrile], the “% of control remaining” value was found to be 98.9675%.

As for `Cc1nc2ccccc2n(CCCN(C)C(=O)CCl)c1=O` [6-D04, 2-chloro-N-methyl-N-[3-(3-methyl-2-oxo-1,2-dihydroquinoxalin-1-yl)propyl]acetamide], the “% of control remaining” value was 95.7058%.

For `C=CC(=O)NCc1ccc(C(=O)NC2CC(=O)N(C)C2)cc1` (stereo not drawn) [3-N22, N-(1-methyl-5-oxopyrrolidin-3-yl)-4-[(prop-2-enamido)methyl]benzamide], the “% of control remaining” value came out at 105.675%.

Take `COc1cc(C=C(C#N)C(=O)Nc2nccs2)cc(OC)c1` [9-J03, 2-cyano-3-(3,5-dimethoxyphenyl)-N-(1,3-thiazol-2-yl)prop-2-enamide]: the “% of control remaining” value is 99.3202%.

As for `C=CC(=O)N1CCn2nccc21` [1-P16, 1-{1H,2H,3H-pyrazolo[1,5-a]imidazol-1-yl}prop-2-en-1-one], the “% of control remaining” value was 119.235%.

With `CCC(C)C1CN(Cc2ccc(C)nc2)CCN1C(=O)C(C)Cl` (stereo not drawn) [7-O16, 1-[2-(butan-2-yl)-4-[(6-methylpyridin-3-yl)methyl]piperazin-1-yl]-2-chloropropan-1-one], the “% of control remaining” value worked out at 70.9731%.

As to `C=CC(=O)NCc1cccc(N2C(=O)NC3(CCCC3)C2=O)c1` [2-M11, N-[(3-{2,4-dioxo-1,3-diazaspiro[4.4]nonan-3-yl}phenyl)methyl]prop-2-enamide], the “% of control remaining” value is listed as 88.1887%.

On to `COc1cc([N+](=O)[O-])ccc1NC(=O)C(C)Cl` (stereo not drawn) [4-K12, 2-chloro-N-(2-methoxy-4-nitrophenyl)propanamide], for which the “% of control remaining” value was determined as 93.5087%.

As for `C=CC(=O)NCc1ccc(-n2ccc(C3CC3)n2)cc1` [2-B03, N-{[4-(3-cyclopropyl-1H-pyrazol-1-yl)phenyl]methyl}prop-2-enamide], the “% of control remaining” value came out at 104.246%.

Consider `C=CC(=O)N1CSCC1C(=O)NCC1CC1` (stereo not drawn) [1-P17, N-(cyclopropylmethyl)-3-(prop-2-enoyl)-1,3-thiazolidine-4-carboxamide], for which the “% of control remaining” value was 100.299%.

On to `CC(Cl)C(=O)Nc1cc(C(F)(F)F)ccc1Cl` (stereo not drawn) [4-N15, 2-chloro-N-[2-chloro-5-(trifluoromethyl)phenyl]propanamide], for which the “% of control remaining” value stood at 99.8922%.

In the case of `CC(Cl)C(=O)N1CCCCC1c1nc(-c2ncccn2)no1` (stereo not drawn) [7-D15, 2-chloro-1-{2-[3-(pyrimidin-2-yl)-1,2,4-oxadiazol-5-yl]piperidin-1-yl}propan-1-one], the “% of control remaining” value is reported as 78.3744%.

With `Cc1nn(C)c(C)c1C=C(C#N)C(=O)Nc1cccc(Cl)c1C` [9-M20, N-(3-chloro-2-methylphenyl)-2-cyano-3-(1,3,5-trimethyl-1H-pyrazol-4-yl)prop-2-enamide], the “% of control remaining” value is given as 87.7634%.

Turning to `COc1ccc(C=C(C#N)C(=O)Nc2ccccc2[N+](=O)[O-])cc1` [8-G03, 2-cyano-3-(4-methoxyphenyl)-N-(2-nitrophenyl)prop-2-enamide], the “% of control remaining” value is on record as 85.9959%.

`C=CC(=O)Nc1ncccn1` [1-M12, N-(pyrimidin-2-yl)prop-2-enamide]: the “% of control remaining” value is given as 88.4903%.

Consider `O=C(CCl)Nc1cc(S(=O)(=O)N2CCCC2)ccc1Cl` [6-G14, 2-chloro-N-[2-chloro-5-(pyrrolidine-1-sulfonyl)phenyl]acetamide], for which the “% of control remaining” value amounted to 86.757%.

Regarding `C=CC(=O)NCc1ccnn1C1CCCC1` [3-H21, N-[(1-cyclopentyl-1H-pyrazol-5-yl)methyl]prop-2-enamide], the “% of control remaining” value stood at 94.7363%.

`C=CC(=O)N1CCCCC1` [1-C12, 1-(piperidin-1-yl)prop-2-en-1-one]: the “% of control remaining” value turned out to be 86.3976%.

`C=CC(=O)Nc1cnn(CC(F)(F)F)c1` [1-A11, N-[1-(2,2,2-trifluoroethyl)-1H-pyrazol-4-yl]prop-2-enamide]: the “% of control remaining” value amounted to 94.0209%.

Turning to `N#CC(=Cc1cc(F)ccc1F)C(=O)NC1CCCC1` [8-I12, 2-cyano-N-cyclopentyl-3-(2,5-difluorophenyl)prop-2-enamide], the “% of control remaining” value worked out at 68.3209%.

In the case of `C=CC(=O)N1CCC(c2nc3c(s2)CCC3)CC1` [3-I22, 1-(4-{4H,5H,6H-cyclopenta[d][1,3]thiazol-2-yl}piperidin-1-yl)prop-2-en-1-one], the “% of control remaining” value worked out at 101.088%.

With `O=C(CCl)NSc1ccc([N+](=O)[O-])cc1` [4-P13, 2-chloro-N-[(4-nitrophenyl)sulfanyl]acetamide], the “% of control remaining” value is reported as 87.6429%.

With `Cc1ccc(N2CCCC2CNC(=O)CCl)cc1` (stereo not drawn) [7-H14, 2-chloro-N-{[1-(4-methylphenyl)pyrrolidin-2-yl]methyl}acetamide], the “% of control remaining” value was found to be 79.0352%.

In the case of `Cc1ccc(N(CCC#N)C(=O)CCl)cc1` [4-M15, 2-chloro-N-(2-cyanoethyl)-N-(4-methylphenyl)acetamide], the “% of control remaining” value is 100.41%.

For the molecule `C=CC(=O)NCc1ccccc1S(=O)(=O)NC` [1-N03, N-{[2-(methylsulfamoyl)phenyl]methyl}prop-2-enamide], the “% of control remaining” value is 97.0105%.

`C=CC(=O)N(Cc1cn(C)nc1-c1ccc(F)cc1)C1CC(C)C1` (stereo not drawn) [1-P09, N-{[3-(4-fluorophenyl)-1-methyl-1H-pyrazol-4-yl]methyl}-N-(3-methylcyclobutyl)prop-2-enamide]: the “% of control remaining” value was 89.9851%.

Take `Cc1cc(C)c(NC(=O)C(C#N)=Cc2ccc(C(C)(C)C)cc2)c(C)c1` [8-I13, 3-(4-tert-butylphenyl)-2-cyano-N-(2,4,6-trimethylphenyl)prop-2-enamide]: the “% of control remaining” value was found to be 81.1013%.

On to `COc1cc(C=C(C#N)C(=O)Nc2cccc(C)c2)c2c(c1)CC(C)O2` (stereo not drawn) [8-N22, 2-cyano-3-(5-methoxy-2-methyl-2,3-dihydro-1-benzofuran-7-yl)-N-(3-methylphenyl)prop-2-enamide], for which the “% of control remaining” value came to 77.7022%.

Turning to `C=CC(=O)NC(C)c1cn(-c2ccccc2)nn1` (stereo not drawn) [1-N04, N-[1-(1-phenyl-1H-1,2,3-triazol-4-yl)ethyl]prop-2-enamide], the “% of control remaining” value was 110.893%.

Consider `O=C(CCl)Nc1ncc(Cc2ccccc2Cl)s1` [4-P07, 2-chloro-N-{5-[(2-chlorophenyl)methyl]-1,3-thiazol-2-yl}acetamide], for which the “% of control remaining” value was determined as 93.5087%.

With `C=CC(=O)N1CCS(=O)(=O)N2CCCC12` (stereo not drawn) [3-H18, 1-(prop-2-enoyl)-hexahydro-1H-4lambda6-pyrrolo[1,2-b][1,2,4]thiadiazine-4,4-dione], the “% of control remaining” value was found to be 91.5604%.

For `Cc1cc(C(=O)CCl)c(C)n1CC(N)=O` [10-O16, 2-[3-(2-chloroacetyl)-2,5-dimethyl-1H-pyrrol-1-yl]acetamide], the “% of control remaining” value is given as 94.6035%.

Take `Cc1nsc(N2CCN(C(=O)C(C)Cl)CC2)c1C#N` (stereo not drawn) [6-H15, 5-[4-(2-chloropropanoyl)piperazin-1-yl]-3-methyl-1,2-thiazole-4-carbonitrile]: the “% of control remaining” value is reported as 89.3355%.

Take `Cc1cccc(C)c1NC(=O)C(C#N)=Cc1ccsc1` [8-I07, 2-cyano-N-(2,6-dimethylphenyl)-3-(thiophen-3-yl)prop-2-enamide]: the “% of control remaining” value is on record as 73.2155%.

As to `C=CC(=O)NC1CCOC1C` (stereo not drawn) [1-F06, N-(2-methyloxolan-3-yl)prop-2-enamide], the “% of control remaining” value came to 109.176%.

As to `Cc1ccc(C=C(C#N)C(=O)Nc2ccc(C(=O)N(C)C)cc2)o1` [9-P14, 4-[2-cyano-3-(5-methylfuran-2-yl)prop-2-enamido]-N,N-dimethylbenzamide], the “% of control remaining” value amounted to 84.0925%.

Consider `CCn1ccc(CN(C)C(=O)CCl)n1` [5-K06, 2-chloro-N-[(1-ethyl-1H-pyrazol-3-yl)methyl]-N-methylacetamide], for which the “% of control remaining” value came out at 100.2%.

Regarding `Cc1ccsc1C=C(C#N)C(=O)N1CCN(c2ccccc2)CC1` [8-B13, 3-(3-methylthiophen-2-yl)-2-(4-phenylpiperazine-1-carbonyl)prop-2-enenitrile], the “% of control remaining” value turned out to be 54.3168%.

With `C=CC(=O)NCCc1nc(C)no1` [3-N19, N-[2-(3-methyl-1,2,4-oxadiazol-5-yl)ethyl]prop-2-enamide], the “% of control remaining” value was 97.03%.
